Laboratory results published in PubChem BioAssay AID588855 (National Center for Advancing Translational Sciences (NCATS), 2011).
“And” between values parts separate entries of the source, which are not always exact repeats. Equal entries are not always repeated. Out of some 410,000 compounds screened, about 5,000 (1.2%) were called active. The inconclusive results got no clear call from the source; some entries with a clear call stand among them for comparison. Calls come from the whole dose curve; as a rule, active = well fitted inhibition curve with a large enough effect; inconclusive = small, poorly fitted or top-dose-only effect; inactive = no such curve, though single readings can be large or run the other way. A potency beside an inconclusive call is a rough fit, not a confirmed value.

Test: qHTS for Inhibitors of TGF-b; note: nearly all actives have a fitted effect of over 65% in size
Details: HepG2 CAGA-GFP TGF-b/SMAD3 reporter, GFP fluorescence, 18 h, TGF-beta stimulated, 500 pg/mL final; series mostly up to 46.1 µM
How it was run: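 Smad-responsive CAGA-GFP expression was quantified in HEPG2 cells exposed to compounds and 500 pg/mL final TGF-beta for 18 h at 37 degrees C; unstimulated wells defined full inhibition.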
Potency is the fitted concentration of half-maximal effect; tags give direction and shape of the fitted curve.

Row | Compound | Potency
1 | COc1ccc(SC[C@H](CC(C)C)N2CCN(C)CCC2=O)cc1 | inconclusive: 3.16 µM [inhibitor, partial curve, poor fit]
2 | O=C(NCC(c1cccs1)N1CCOCC1)c1ccccc1NS(=O)(=O)c1ccc(Cl)cc1 (centres undefined) | inconclusive: 12.6 µM [inhibitor, single point]
3 | COc1ccc(OC2CCN(C(=O)Nc3ccc(C)cc3)CC2)cc1 | inactive
4 | O=C(Nc1cccc(Br)c1)N1CCC(CN2CCCCC2)CC1 | inactive
5 | COc1ccc(S(=O)(=O)N2CCC(C(=O)Nc3ccc(S(=O)(=O)N4CCCC4)cc3)CC2)cc1OC | inactive
6 | O=C(c1ccc2c(c1)CCN2S(=O)(=O)c1ccccc1)N1CCN(c2ccc(F)cc2)CC1 | inconclusive: 11.2 µM [inhibitor, partial curve, poor fit] and inconclusive: 35.5 µM [inhibitor, single point]
7 | CC(=O)c1cc2c(cc1NC(=O)c1c(C)nn(-c3ccc(C)cc3)c1-n1cccc1)OCO2 | inactive
8 | CCCN1CCC(NCc2cn(C)nc2-c2ccc(Oc3ccccc3)cc2)CC1 | inconclusive: 11.2 µM [inhibitor, single point]
9 | Cc1ccc(S(=O)(=O)Cc2nc(-c3ccc(C(=O)NCc4ccccc4)cc3)oc2C)cc1 | inconclusive: 15.8 µM [inhibitor, single point]
10 | CN1CCC(N(C)S(=O)(=O)c2ccc(NC(=O)COc3ccc(Br)cc3Cl)cc2)CC1 | inconclusive: 35.5 µM [inhibitor, single point]
11 | CC(=O)Nc1ccc(S(=O)(=O)N2c3ccccc3C(C)=CC2(C)C)cc1 | inconclusive: 12.6 µM [inhibitor, partial curve, poor fit]
12 | Cc1cc(NC(=O)CSc2nnc(-c3ccc(Cl)s3)o2)no1 | inconclusive: 11.2 µM [inhibitor, single point]
13 | Fc1ccccc1CNc1nc(-c2cccnc2)nc2ccccc12 | inconclusive: 35.5 µM [inhibitor, single point]
14 | COCCn1c(CNC(=O)c2cc([N+](=O)[O-])ccc2Cl)nc2cccnc21 | inconclusive: 0.224 µM [inhibitor, full curve, poor fit]
15 | Cc1ccc(CNC(=O)c2c[nH]c3ccc(S(=O)(=O)Nc4ccc(C(C)C)cc4)cc3c2=O)cc1 | inconclusive: 3.16 µM [inhibitor, full curve]
16 | C#CCN(C[C@H]1[C@H](OC(=O)NC2CCCC2)[C@H](OC(=O)NC2CCCC2)C[C@@H](C(=O)OC)[C@H]1C(=O)OC)S(=O)(=O)c1ccc(C)cc1 | inconclusive: 11.2 µM [inhibitor, partial curve, poor fit]
17 | COc1cc(NC(=O)C(NC(=O)C2CCC(C)CC2)C(C)C)cc(OC)c1OC (centres undefined) | inactive
18 | Oc1cccc(-c2csc(C(O)(c3ccccc3)C(F)(F)F)n2)c1 (centres undefined) | inconclusive: 22.4 µM [inhibitor, single point]
19 | C=CCN1C(=O)/C(=C\C(C)=C\c2ccccc2)SC1=S | inactive
20 | COCCOC(=O)C1=C(C)NC(SCC(=O)NC(C)(C)C)=C(C#N)C1c1ccco1 (centres undefined) | inactive
21 | CC1Cc2ccccc2N1S(=O)(=O)c1nnc(NC(=O)c2ccccc2Br)s1 (centres undefined) | inconclusive: 35.5 µM [inhibitor, single point]
22 | COc1ccc(NC(=O)CSc2nc3n[nH]c(C)c3c(=N)n2-c2ccc(Cl)c(C)c2)cc1OC | inconclusive: 35.5 µM [inhibitor, single point]

Row | Compound | Potency
23 | CC(C)Oc1ccc(C(=O)Nc2ccc3oc(-c4ccncc4)nc3c2)cc1 | inactive
24 | COc1ccc(S(=O)(=O)NCC(c2cccs2)S(=O)(=O)c2ccc(C)cc2)cc1F (centres undefined) | inconclusive: 14.1 µM [inhibitor, single point]
25 | COc1ccc2c(c1)CCc1c(C(=O)Nc3c(C)nn(Cc4ccccc4Cl)c3C)noc1-2 | inconclusive: 3.55 µM [inhibitor, partial curve]
26 | CSc1cccc(NS(=O)(=O)c2cc(Br)cnc2N)c1 | inconclusive: 3.55 µM [inhibitor, single point]
27 | O=C(Nc1ccccc1)C1=C[C@H](c2csc3ccccc23)C[C@H](OCCCCO)O1 | inconclusive: 0.112 µM [inhibitor, full curve, poor fit]
28 | Nc1nc(Cn2nnc(-c3ccccc3F)n2)nc(N2CCOCC2)n1 | inconclusive: 5.62 µM [inhibitor, single point]
29 | COc1ccc(-c2cn(CCCOCc3ccccc3)nn2)cc1 | inactive
30 | CC1(C(=O)Nc2cccc(OC(F)(F)F)c2)Cc2c(-c3ccc4c(c3)OCO4)ccnc2O1 (centres undefined) | inconclusive: 35.5 µM [inhibitor, single point]
31 | CCCC(NC(=O)CCl)c1ccccc1 (centres undefined) | inconclusive: 28.2 µM [inhibitor, single point]
32 | CC(=O)N1c2ccc(S(=O)(=O)N3CCC(C(=O)N4CCN(c5cccc(C(F)(F)F)c5)CC4)CC3)cc2CC1C (centres undefined) | inconclusive: 35.5 µM [inhibitor, single point]
33 | O=C(NCCCc1ccc(F)cc1)C1CCC(=O)N(CCCN2CCCC2=O)C1 (centres undefined) | inactive
34 | COC(=O)c1c(C)oc2c1cc(NS(=O)(=O)c1c(C)cc(C)cc1C)c1ccccc12 | inconclusive: 10 µM [inhibitor, partial curve, poor fit]
35 | CCOc1ccc(OCC)c(NC(=O)CC2Oc3ccc(C)cc3NC2=O)c1 (centres undefined) | inconclusive: 7.94 µM [inhibitor, partial curve]
36 | C=Cc1ccc(CN2CCCN(Cc3ccc(F)cc3)S2(=O)=O)cc1 | inconclusive: 35.5 µM [inhibitor, single point]
37 | O=C1CC(c2ccccc2)=NN1c1ccc([N+](=O)[O-])cc1 | inconclusive: 17.8 µM [inhibitor, single point]
38 | Cc1ccc(NC(=O)CCc2c(C)nn(-c3ccc(N4CCCCC4)nn3)c2C)cc1F | inconclusive: 35.5 µM [inhibitor, single point]
39 | O=c1[nH]c(-c2ccc(-c3cccc(Cl)c3)o2)nc2ccccc12 | inconclusive: 15.8 µM [inhibitor, single point]
40 | O=C1C(=O)N(CC2COc3ccccc3O2)c2ccccc21 (centres undefined) | inconclusive: 35.5 µM [inhibitor, single point]
41 | Cc1cc(NC(=O)CCC(=O)N(CC(=O)NC2CCCC2)c2ccc(C(C)C)cc2)no1 | inconclusive: 35.5 µM [inhibitor, single point]
42 | CCC(C)(C)n1nnnc1C(c1ccc(O)c(OC)c1)N1CCc2ccccc2C1 (centres undefined) | inconclusive: 10 µM [inhibitor, partial curve]
43 | O=S(=O)(c1cccc(F)c1)N1CCN(Cc2ccc3c(c2)OCO3)CC1 | inactive
44 | CCn1ncc(Br)c1C(=O)Nc1cc(C(=O)OC)ccc1C(=O)OC | inconclusive: 1.26 µM [inhibitor, full curve, poor fit]

Row | Compound | Potency
45 | COCCN(C(=S)Nc1cc(C)ccc1C)C(C)c1cccnc1 (centres undefined) | inconclusive: 22.4 µM [inhibitor, single point]
46 | Cc1cccc(CS(=O)(=O)CC2Nc3ccc(C(=O)NCc4ccccc4)cc3NC2=O)c1 (centres undefined) | inconclusive: 7.08 µM [inhibitor, full curve]
47 | O=C(CSc1nccn1-c1ccc(Cl)cc1)N1CCCc2ccccc21 | inactive
48 | CCOC(=O)c1ccc(N2C(=O)c3n[nH]c(C)c3C2c2ccc(O)c(OC)c2)cc1 (centres undefined) | active: 11.2 µM
49 | COc1ccc(N2CCN(C(=O)Cn3cnc4sc(C)c(S(=O)(=O)N5CCC(C)CC5)c4c3=O)CC2)cc1 | inconclusive: 14.1 µM [inhibitor, single point]
50 | CC(C)(C)NC(=O)CN(Cc1cccs1)C(=O)CCN1CCc2ccccc21 | inconclusive: 35.5 µM [inhibitor, single point]
51 | COc1ccc(NC(=O)c2c(N)no[n+]2[O-])cc1 | inconclusive: 5.62 µM [inhibitor, single point]
52 | COc1ccc(CNC(=S)N/N=C/c2ccc(O)c(OC)c2)cc1 | active: 11.2 µM
53 | Cc1cc(C)nc(N/N=C/C2=C(N3CCOCC3)C(=C\c3ccc(Cl)cc3)/CC2)n1 | inconclusive: 25.1 µM [inhibitor, single point]
54 | COn1c(SCc2cccc(Cl)c2)nc2ccccc2c1=O | inactive
55 | Cc1c(-c2ccccc2)[n+](=O)c(-c2ccc(Cl)cc2)c(C)n1[O-] | inactive
56 | COc1ccc(-c2cc(=O)c3ccccc3o2)cc1 | inconclusive: 11.2 µM [inhibitor, partial curve, poor fit]
57 | O=C(CSc1ccc([N+](=O)[O-])cc1)Nc1cccc(S(=O)(=O)Nc2ccccc2F)c1 | inconclusive: 25.1 µM [inhibitor, single point]
58 | CCCCN(CCCC)Cc1cc(=O)oc2cc(OC)ccc12 | inconclusive: 35.5 µM [inhibitor, single point]
59 | COc1ccc(CCNC(=O)CSc2nc(=O)[nH]c3c2CCC3)cc1OC | inactive
60 | Cn1c(=S)[nH]c2scc(-c3cccs3)c2c1=O | inactive
61 | COC(=O)c1ccccc1NC(=O)CN1CCC(n2nnc3cc(C(F)(F)F)ccc32)CC1 | inactive
62 | Cc1ccccc1C(=O)NC1CC2CCCC(C1)N2CC(C)C (centres undefined) | inactive
63 | O=C(NCc1cc(C(F)(F)F)cc(C(F)(F)F)c1)C1CC(c2c(Cl)cccc2Cl)=NO1 (centres undefined) | inconclusive: 35.5 µM [inhibitor, partial curve, poor fit]
64 | O=C(CSc1c2c(nc3ccc(Cl)cc13)CCCC2)N1CCN(C(=O)c2ccco2)CC1 | inconclusive: 22.4 µM [inhibitor, single point]
